These results are taken from PubChem BioAssay AID488969 (Vanderbilt High Throughput Screening Facility, 2010).

Whole data set: some 110,000 compounds, median “z-score” near -0.1, cut for the highest 2% near 2. This is one part of the list. The source made the active and inactive calls.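 Rule for the calls: active = z-score in the third read window above 3 or below -3; inactive = the rest.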

The assay deals with Metabotropic glutamate receptor 8 (Rattus norvegicus) (UniProt P70579). Put plainly: mGluR8 Gi/Go-coupled signaling modulation – cell-based, rat, thallium flux, HTS, primary screen (AID 488969). Conditions: HEK293 rat mGluR8, GIRK (G protein-gated inwardly rectifying potassium channel) thallium flux, FluoZin2; at 10 µM; stronger effect = higher value; submaximal glutamate (EC20) added with thallium.
Chain of UniProt P70579 (P70579 whole entry, looked up): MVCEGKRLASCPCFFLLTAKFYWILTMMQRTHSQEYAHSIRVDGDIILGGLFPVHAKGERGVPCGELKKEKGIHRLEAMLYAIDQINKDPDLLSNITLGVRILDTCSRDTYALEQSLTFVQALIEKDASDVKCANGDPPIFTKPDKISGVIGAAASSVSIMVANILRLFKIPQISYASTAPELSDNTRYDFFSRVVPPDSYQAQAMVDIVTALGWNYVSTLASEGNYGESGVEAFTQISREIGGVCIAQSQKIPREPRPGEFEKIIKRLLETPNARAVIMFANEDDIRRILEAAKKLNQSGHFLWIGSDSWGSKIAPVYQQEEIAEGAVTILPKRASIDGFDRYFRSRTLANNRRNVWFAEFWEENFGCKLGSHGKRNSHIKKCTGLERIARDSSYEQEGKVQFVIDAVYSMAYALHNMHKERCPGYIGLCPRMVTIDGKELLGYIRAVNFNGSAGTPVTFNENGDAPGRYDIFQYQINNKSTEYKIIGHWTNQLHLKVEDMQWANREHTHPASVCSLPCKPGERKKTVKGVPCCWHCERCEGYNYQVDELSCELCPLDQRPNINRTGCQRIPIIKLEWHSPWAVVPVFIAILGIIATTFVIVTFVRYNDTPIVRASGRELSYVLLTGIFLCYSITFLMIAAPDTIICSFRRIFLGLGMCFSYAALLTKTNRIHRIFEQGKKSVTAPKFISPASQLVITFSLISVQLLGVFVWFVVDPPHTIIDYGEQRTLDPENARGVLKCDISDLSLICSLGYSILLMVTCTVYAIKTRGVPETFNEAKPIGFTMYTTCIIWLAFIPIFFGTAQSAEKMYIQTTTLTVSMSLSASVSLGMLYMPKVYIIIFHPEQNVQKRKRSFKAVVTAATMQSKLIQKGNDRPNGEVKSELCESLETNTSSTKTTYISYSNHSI
Turning to `Fc1ccc(CSc2nncn2NC/C=C/c2ccccc2)cc1`, the z-score was -0.402. The figure for `CCOC(=O)c1cnn(-c2nc(-c3ccccc3F)cs2)c1C(F)(F)F` is 0.107; for `Cc1cc(=O)[nH]c2c(C)c(Cl)ccc12` it is -0.186; for `COC(=O)c1c(NC(=O)C2COc3ccccc3O2)sc2c1CCN(C(C)=O)C2` (stereo not given) it is -0.254. Compound `CC(=O)NCc1cc(-c2nn(C)c(=O)c3ccccc23)ccc1C` gave a z-score of 0.0782. Regarding `CC1C=CCC2C(=O)N(c3cccc(C(=O)N4CCCCCC4)c3)C(=O)C12` (stereo not given), the z-score was found to be 0.53. On to `COCCNC(=O)C(c1ccc(F)cc1)N(CC1CCCO1)C(=O)CCC(=O)Nc1ccccn1` (stereo not given), for which the z-score is -0.385. For `Cn1ncc(Cl)c1C(=O)NC(=S)Nc1sc2c(c1C#N)CCCCC2` the value was 0.112; for `CCOC(=O)c1cnn(-c2ccccc2)c1N`, -0.137.

Take `Cc1c(NC(=O)/C=C/C(=O)O)cccc1[N+](=O)[O-]`: the z-score came out at 0.28. With `Cc1nn(Cc2cccc(C(=O)NCC(C)C)c2)c(C)c1Br`, the z-score was -1.42. For `C=CCNC(=O)c1ccc(Sc2ccccc2)c([N+](=O)[O-])c1` the value was -0.412; for `O=C(Nc1c2c(nc3ccccc13)CCCC2)c1ccccc1Cl`, -0.106. The figure for `Cc1ccc(C)c(NC(=O)c2oc(=O)c3ccccc3c2-c2ccccc2)c1` is -0.466; for `Cc1nnc(NC(=O)c2sc3nc(-c4cccs4)cc(C(F)(F)F)c3c2N)s1` it is -0.26.

For the compound `Cc1cccc(C(=O)Oc2csc(=S)n2C(=O)c2cccc(C)c2)c1`, the z-score worked out at 0.282. For `COc1ccc(Oc2nc(SC)nc3ccccc23)cc1` the value was -0.0187.

As for `CC(C)NC(=O)/C(=N\O)c1ccccc1`, the z-score amounted to 0.0549. For `O=C(Cc1ccccc1)N[C@@H](Cc1ccccc1)c1nc2ccccc2[nH]1` the value was -0.0491. The figure for `COc1cccc(NC(=O)COC(=O)c2ccccc2F)c1` is 1.14. For `CC(=O)c1ccc2c(c1)c1ccccc1n2CC(C)C` the value was 0.108. As for `CCOC(=O)COc1ccc(C)cc1-c1ccno1`, the z-score is -0.341. With `Cc1cccc(C)c1OCC(=O)N=Nc1c(O)[nH]c2ccc(Br)cc12`, the z-score was -0.208. For `CCn1cc(C(=O)N2CC=C(c3ccccc3)CC2)c(=O)c2ccc(C)nc21`, the z-score was -0.132. As to `Cc1ccccc1C(OCCN(C(C)C)C(C)C)c1ccccc1` (stereo not given), the z-score was found to be 1.06. For `CC(C)OC(=O)c1cc2ccccc2[nH]1` the value was -0.0749; for `CCn1c(CSCc2ccc(F)cc2)nnc1SCC(=O)NCc1ccccc1`, 0.172; for `COc1ccc(C(=O)Nc2ccccc2C(=O)N/N=C/c2cccc3ccccc23)cc1`, -0.0109. The figure for `Cc1ccc(C)c(NC2=NCC(=O)N2c2ccc3c(c2)OCCO3)c1` is 0.186; for `CCOC(=O)c1c(/N=C/c2ccc(C)cc2O)sc2c1CCC2` it is 0.443.

Consider `O=c1[nH]c(=O)n(C2CCCCCC2)c(O)c1C=NCc1ccc(F)cc1`, for which the z-score amounted to 0.78. The figure for `COc1ccc(/C=C/c2nc(-c3ccccc3O)n(-c3ccccc3)n2)cc1` is -0.153; for `CC(=O)Nc1ccc(S(=O)(=O)NCc2ccc(C(=O)NCCN3CCCCCC3)cc2)cc1` it is 0.0456; for `Cc1ccc(C(=O)NCCn2cc(SCC(=O)Nc3cc(C)on3)c3ccccc32)cc1` it is -0.282. The figure for `O=C(OCCCN1CCCCC1)c1ccc(O)cc1` is 0.0289; for `O=C(Nc1nnc(CCOCCOCCc2nnc(NC(=O)c3ccco3)s2)s1)c1ccco1` it is -0.165. For `O=C(COC(=O)c1ccc[nH]c1=O)NC1CCCC1` the value was -1.01; for `Cc1cc(C(=O)CN2C(=O)NC3(CCCCC3C)C2=O)c(C)n1Cc1cccs1` (stereo not given), -0.337. In the case of `COc1ccc2c(-c3cc4ccc(OCc5ccc(F)cc5)cc4oc3=O)cc(=O)oc2c1`, the z-score was 0.0169. The figure for `CC(C)c1ccc(/C=C/C(=O)Nc2nc3ccc([N+](=O)[O-])cc3s2)cc1` is -0.129. For `CCOC(=O)N1CCC(N2C(=O)c3ccccc3C2Nc2ccc(C)cc2)CC1` (stereo not given) the value was -0.488; for `CNc1cccc2c1C(=O)c1ccccc1C2=O`, -0.102. For `O=C(CCc1ccc(S(=O)(=O)NC2CCCCC2)cc1)NCc1ccc(Cl)cc1` the value was -0.344. Compound `CN(Cc1ccccc1)C(=O)Cn1c(=O)oc2cc(S(=O)(=O)N3CCCC3)ccc21` displayed a z-score of -0.16. For `O=S(=O)(c1ccc(-c2nnc(SCc3nnc(-c4ccccc4)o3)o2)cc1)N1CCCC1`, the z-score is active: 3.72. The figure for `CCOC(=O)c1c(NC(=O)CSc2nnc(C)s2)sc2c1CCCCC2` is 0.0222. The figure for `O=c1c2ccsc2ncn1Cc1ccc(Cl)cc1` is 0.339; for `CNC(=O)C1CC(=O)N(c2ccc(F)c(Cl)c2)C1` (stereo not given) it is 0.658; for `Cc1c(NC(=O)COC(=O)c2c3c(nc4ccccc24)CCCC3)c(=O)n(-c2ccccc2)n1C` it is -0.393. `CC1Cc2ccccc2N1C(=O)Cn1c(=O)oc2cc(S(=O)(=O)NC3CCCC3)ccc21` (stereo not given) yielded a z-score of -0.286. For `COc1ccccc1/C=C1/SC(=O)N(CCC(=O)Nc2ccc(S(=O)(=O)Nc3nccs3)cc2)C1=O` the value was -0.59. Take `CCOc1ccccc1NC(=O)CSc1nnc(-c2ccco2)n1Cc1ccco1`: the z-score is active: -4.02.

`Cc1nc2cc(C(=O)O)ccc2n1C1CCCCC1` showed a z-score of 0.357. The figure for `Cc1c(NS(=O)(=O)c2ccc3c(c2)OCCO3)cccc1-c1nc2cccnc2s1` is 0.463; for `CCOC(=O)C1C(=O)C=C(c2ccc(OC)cc2)CC1c1ccco1` (stereo not given) it is 1.21. The figure for `O=S(=O)(Nc1ccc(N2CCCCC2)cc1)c1cccs1` is -0.488. As to `O=C1c2ccccc2C(=O)N1CN(C(=O)COc1ccccc1)c1ccccc1`, the z-score is -0.465.

`N#Cc1cccc(NC(=O)COC(=O)c2ccccc2Sc2ccccc2C#N)c1` showed a z-score of 0.107. The figure for `COc1ccc(-c2nc(-c3cccs3)c(-c3cccs3)[nH]2)cc1O` is -0.338. The figure for `O=C(COc1ccccc1)Nc1nc2ccccc2[nH]1` is -0.199. The figure for `Cc1ccc(N2C(=O)CC3(CC4C=CC3C4)C2=O)cc1` (stereo not given) is -0.471. With `COc1cc(C(=O)Nc2cccc(-c3nc4ccccc4o3)c2C)cc(OC)c1OC`, the z-score is -0.059.

As to `CSc1ccccc1NC(=O)CCn1c(=O)sc2ccccc21`, the z-score is -0.581. The figure for `CC(=O)N1CN(CCCn2ccnc2)Cc2c1sc1c2CCCC1` is -0.346; for `O=S(=O)(Nc1nc2ccccc2nc1Cl)c1ccccc1` it is 0.321; for `CN(Cc1ccc(-n2cccn2)cc1)C(=O)c1cnn2c1NC(c1ccco1)CC2C(F)(F)F` (stereo not given) it is -0.35. For `Cc1cc(=O)oc2ccc(OC(=O)c3cccc(S(=O)(=O)N4CCOCC4)c3)cc12` the value was -0.185; for `O=C(NCCc1ccccc1)c1ccc(=O)oc1`, -0.205; for `CCCCCC1CC(CC(=O)O)C(=O)O1` (stereo not given), -0.0183. The figure for `N#Cc1cccc(NC(=O)CC2CCCCC2)c1` is 0.239.
